Test results reported in the supplement of paper PMC10338343.
± gives the standard deviation. The full ranking holds about 5,500 sequences; the median of “pre-steady-state target cleavage rate” is about 0.1, and the highest 2% start at about 0.64. The list shows a part of the results, in another mix than the full data.

Test system: MIWI (PIWIL1) piRISC loaded with piRNA #2 (30 nt)
Experiment: pre-steady-state target cleavage rate (min^-1); MIWI and MILI are mouse PIWI proteins and EfPiwi is from a freshwater sponge; tags in brackets are library labels; higher = faster piRNA-guided slicing of the target
Conditions: guide: piRNA #2 5'p-UUAGGUAACCCAGUAGAUCCAGAGGAAUUC; auxiliary factor: 500 nM mouse GTSF1
How it was run: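 Three pooled Cleave-'n-Seq trials supplied the data, with k3 capped at 0.0001 min^-1. In each, […] transcribed, DNA-blocked target RNA library and 1 nM active affinity-purified piRISC with one synthetic guide reacted in HEPES–potassium acetate buffer at 33 °C for 0–8 or 0–960 min, with or without 500 nM GTSF1 partner protein. Uncleaved targets were sequenced and normalised to depth and to weakly complementary targets. A burst-and-steady-state fit provided the pre-steady-state cleavage rate.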

Sequence | pre-steady-state target cleavage rate
CUAUUCCUGUGGAUCUACUGGGUUUCCUAA | 0.29 ± 0.041
CUAUUGCUCUGGAUCUACAGGGUUACCUAA | 0.0914 ± 0.014
CUUUUCCUCUGCAUCUACAGGGUUACCUAA | 0.219 ± 0.019
CUUAACCUGUGGAUCUACUGGGUUACCUUA | 0.289 ± 0.021
CAAAUCCUCUGGAUCUACUGGGUUAGCUAA | 0.367 ± 0.062
CUUAAGCUCAGGAUCUAGUGGGUUACCUAA | 0.0534 ± 0.013
CUAUUCCUCUGCAUCUACAGGGUUACCUAA | 0.25 ± 0.028
GAAUUCCUCUGGAUCUACUGGGUUAGCCUAA | 0.299 ± 0.036
CAAGUUCCUCUGGAUCUACUGGGUUACCUAA | 0.287 ± 0.068
CUUAACCACUGGUUCUACUGGGUUACCUAA | 0.432 ± 0.037
CUUAACCUCUGGAUCUACUGGGUUAGCCUAA | 0.266 ± 0.042
CUACUUCCUCUGGAUCUACUGGGUUACCUAA | 0.256 ± 0.046
CUUUUCCUCUGGAUGUACUGGGUAACCUAA | 0.139 ± 0.032
CUUUUGCUCUGGAUCUACUGGGUUACGUAA | 0.43 ± 0.036
CUAUUCCUCUGUAUCUACUGGGUUACCUAA | 0.404 ± 0.048
CUUAAGGUCUGGAUCUAGUGGGUUAGCUAA | 0.0201 ± 0.0071
GAAUUCCUCUGGAUCUAGUGGGUUACCAAA | 0.134 ± 0.019
CUAUUCCUCUGGAUCUACUGUGUUACCUAA | 0.696 ± 0.073
CUUAAGCUCUGGAUGUACUGGGUUACCUUA | 0.146 ± 0.02
GAAUUCCUCUGGAUCAACUGGGUUACCUUA | 0.208 ± 0.039
CUUAAGCUCUGGAUCGACUGGGUUACCUAA | 0.103 ± 0.015
CUUAUCCUCUGGUAGUACUGGGUUACCUAA | 0.165 ± 0.021
CUUAUCCUGUGGAUCUACUGGCUUACCUAA | 0.0566 ± 0.02
GAAUUCCUCUGGAUCUACUGGCAUACCUAA | 0.00471 ± 0.003

Sequence | pre-steady-state target cleavage rate
CUUAUCCUCUGAAUCUACUGGGUUACCUAA | 0.214 ± 0.03
CUUAACGUCUGGAUCUAGUGGGUUACCUAA | 0.0606 ± 0.0092
CUUAAGGUCUGGAUCUAGUGGGUUACGUAA | 0.124 ± 0.021
GAAUUCCUCUGCAUCUACUGGGUUACCUAA | 0.421 ± 0.051
CUUAAGGUCUGGAUCUACUGGGUUACCUUA | 0.118 ± 0.016
CUUAAGCUCUCGAUCUACUGGGUUAGCUAA | 0.0646 ± 0.014
CAAUUCCUCUGCAUCUACAGGGUUACCUAA | 0.291 ± 0.029
CAAUUCCUCUGCAUCUAGUGGGUUACCUAA | 0.211 ± 0.02
CUUAAGCUCUGGAUCUACAGGGUUUCCUAA | 0.0598 ± 0.0086
CUUUUCCUCUGGUUCUAGUGGGUUACCUAA | 0.177 ± 0.02
CAAUUCCUCUGGAACUACUGGGUAACCUAA | 0.235 ± 0.035
CUUAAGGAGAGGAUGCUACUGGGUUACCUAA | 0.00368 ± 0.0029
CUUAUGCCUCUGGAUCUACUGGGUUACCUAA | 0.198 ± 0.028
CUUUAGCUCUGGAUCUACUGGGUUACCUAA | 0.113 ± 0.022
CUUAAGGUCUGGAUCUUCUGGGUUACCAAA | 0.0379 ± 0.015
CAAUACCUCUGGAUCUACUGGGUUACCUUA | 0.36 ± 0.061
GAAUUCCUCUGGAUCCACUGGGUUACCUAA | 0.249 ± 0.047
CUUUUCCUCUGGAUCUACUGGCGUUACCUAA | 0.0048 ± 0.0024
CUUAAGGUCUGGAUCUACUGGGUUACCUAG [g2:g23:cont:t1G] | 0.167 ± 0.018
CAAUACCUCUGGAACUACUGGGUUACCUAA | 0.446 ± 0.04
CAUUUCCUCUGGAUCUACUGGGUUACCAAA | 0.607 ± 0.077
CUUAAGCAGUGGAUCUACUGGGUUACCUAA | 0.161 ± 0.018
CUUAUCCUCUGCAUCUACAGGGUUACCUAA | 0.19 ± 0.016
GAAUUCCUCUGGAUCUACAGGGUUACGUAA | 0.285 ± 0.028

Sequence | pre-steady-state target cleavage rate
GAAUUCCUGUGGAUCUUCUGGGUUACCUAA | 0.24 ± 0.046
CUUAAGGUCUGUAUCUACUGGGUUACCUAA | 0.15 ± 0.049
CUUAAGGUCUGGAACUACUGGGUUAGCUAA | 0.0612 ± 0.029
CUUAUCCUCAGGAUCUACUGGGUUACGUAA | 0.529 ± 0.064
CUUUUGCUCUGGAUCUACUGGCUUACCUAA | 0.0593 ± 0.0096
CAAUUCCUCUGGAUCUACUGGGUUACCGAA | 0.275 ± 0.049
CUUAAGCUCUGCAUCUACUGGGUUACCUAA | 0.162 ± 0.03
GAAUUCCUCUGGAUCUACUGGGUUACCUUA | 0.224 ± 0.041
CUUAAGGAGUGAGAUCUACUGGGUUACCUAA | 0.01 ± 0.0054
CUUUUCCUCUGGAUCUACUGGGUUACCUAC [g2:g27:cont:t1C] | 0.31 ± 0.038
CUUAACCUCUGGGAUCUACUGGGUUACCUAA | 0.327 ± 0.024
CUAUUCCUCUGGAUCUAGUGGGAUACCUAA | 0.0784 ± 0.013
CUAUUCCACUGGAUCAACUGGGUUACCUAA | 0.473 ± 0.041
CUUUUCCUCUGGAAUCUACUGGGUUACCUAA | 0.328 ± 0.037
CAAUUCCUCUGGAUCUACGGGGUUACCUAA | 0.1 ± 0.012
CUUAAGGUCUGGAUCUAGUGGGUUACCUUA | 0.0513 ± 0.011
CUUUUCCUCUGGUUCAACUGGGUUACCUAA | 0.453 ± 0.037
CUUAAGGAGUGGAUCUACAGGGUUUCCUAA | 0.0043 ± 0.0022
CUAUUCCUCUGGAUGAUCUGGGUUACCUAA | 0.0129 ± 0.0054
CUUAACCUCAGGAACUACUGGGUUACCUAA | 0.525 ± 0.034
CUUAACCUCUCCAUCUACUGGGUUACCUAA | 0.398 ± 0.04
GAAUUCCUCUCGAUCUACUCGGUUACCUAA | 0.123 ± 0.018
CUUAACCUCUGCUACUACUGGGUUACCUAA | 0.282 ± 0.031
CUUUUCCUCUGGAUCUACUGGGUUAGCUAA | 0.303 ± 0.046
